# Test results from the supplement of paper PMC8728848.
# Some of the results follow.
# Experiments:
# Assay in all cases: glycan array binding signal (z-score within array); higher = stronger binding
# Conditions in all cases: glycan notation: IUPAC condensed, linker removed
# [1] = target: Glc(b1-6)Glc
# In short: (§1)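 From the Consortium for Functional Glycomics database, 3228 arrays were curated, keeping only those whose protein sequence was available. Binding is given as a within-array Z-score averaged across arrays sharing a protein sequence and across linkers. Negative Z-scores can be read as non-binding.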
# [2] = target: GlcA(b1-3)Gal
# In short: as §1
# [3] = target: GlcA(b1-3)GlcNAc
# In short: as §1
# [4] = target: GlcA(b1-6)Gal
# In short: as §1
# [5] = target: GlcA3S(b1-3)Gal(b1-4)GlcNAc(b1-2)Man
# In short: as §1
# [6] = target: GlcA3S(b1-3)Gal(b1-4)GlcNAc(b1-3)Gal(b1-4)Glc
# In short: as §1
# [7] = target: GlcNAc(a1-3)Gal(b1-4)GlcNAc
# In short: as §1
# [8] = target: GlcNAc(a1-4)Gal(b1-3)GlcNAc
# In short: as §1
# [9] = target: GlcNAc(a1-4)Gal(b1-4)GalNAc
# In short: as §1
# [10] = target: GlcNAc(a1-4)Gal(b1-4)GlcNAc
# In short: as §1
# [11] = target: GlcNAc(a1-4)Gal(b1-4)GlcNAc(b1-3)Gal(b1-4)Glc
# In short: as §1
# [12] = target: GlcNAc(a1-4)Gal(b1-4)GlcNAc(b1-3)Gal(b1-4)GlcNAc
# In short: as §1
# [13] = target: GlcNAc(a1-4)Gal(b1-4)GlcNAc(b1-3)Gal(b1-4)GlcNAc(b1-3)Gal(b1-4)GlcNAc
# In short: as §1
# [14] = target: GlcNAc(a1-4)Gal(b1-4)GlcNAc(b1-3)Gal(b1-4)[Fuc(a1-3)]GlcNAc(b1-3)Gal(b1-4)[Fuc(a1-3)]GlcNAc
# In short: as §1
# [15] = target: GlcNAc(a1-6)Gal(b1-4)GlcNAc
# In short: as §1
# [16] = target: GlcNAc(b1-2)Gal(b1-3)GalNAc
# In short: as §1
# [17] = target: GlcNAc(b1-2)Man(a1-3)[GlcNAc(b1-2)Man(a1-6)]Man(b1-4)GlcNAc(b1-4)GlcNAc
# In short: as §1
# [18] = target: GlcNAc(b1-2)Man(a1-3)[GlcNAc(b1-2)Man(a1-6)]Man(b1-4)GlcNAc(b1-4)[Fuc(a1-6)]GlcNAc
# In short: as §1
# [19] = target: GlcNAc(b1-2)Man(a1-3)[GlcNAc(b1-4)][GlcNAc(b1-2)Man(a1-6)]Man(b1-4)GlcNAc(b1-4)GlcNAc
# In short: as §1
# [20] = target: GlcNAc(b1-2)Man(a1-3)[GlcNAc(b1-4)][GlcNAc(b1-2)Man(a1-6)]Man(b1-4)GlcNAc(b1-4)[Fuc(a1-6)]GlcNAc
# In short: as §1
# [21] = target: GlcNAc(b1-2)[GlcNAc(b1-4)]Man(a1-3)[GlcNAc(b1-2)Man(a1-6)]Man(b1-4)GlcNAc(b1-4)GlcNAc
# In short: as §1
# [22] = target: GlcNAc(b1-2)[GlcNAc(b1-4)]Man(a1-3)[GlcNAc(b1-4)][GlcNAc(b1-2)Man(a1-6)]Man(b1-4)GlcNAc(b1-4)GlcNAc
# In short: as §1
# [23] = target: GlcNAc(b1-2)[GlcNAc(b1-4)]Man(a1-3)[GlcNAc(b1-4)][GlcNAc(b1-2)[GlcNAc(b1-6)]Man(a1-6)]Man(b1-4)GlcNAc(b1-4)GlcNAc
# In short: as §1
# [24] = target: GlcNAc(b1-2)[GlcNAc(b1-4)]Man(a1-3)[GlcNAc(b1-4)][GlcNAc(b1-2)[GlcNAc(b1-6)]Man(a1-6)]Man(b1-4)GlcNAc(b1-4)[Fuc(a1-6)]GlcNAc
# In short: as §1
# [25] = target: GlcNAc(b1-2)[GlcNAc(b1-6)]Man(a1-6)[GlcNAc(b1-2)Man(a1-3)]Man(b1-4)GlcNAc(b1-4)GlcNAc
# In short: as §1
# [26] = target: GlcNAc(b1-2)[GlcNAc(b1-6)]Man(a1-6)[GlcNAc(b1-2)Man(a1-3)]Man(b1-4)GlcNAc(b1-4)[Fuc(a1-6)]GlcNAc
# In short: as §1
# [27] = target: GlcNAc(b1-2)[GlcNAc(b1-6)]Man(a1-6)[GlcNAc(b1-4)][GlcNAc(b1-2)Man(a1-3)]Man(b1-4)GlcNAc(b1-4)GlcNAc
# In short: as §1
# [28] = target: GlcNAc(b1-3)Fuc
# In short: as §1
# [29] = target: GlcNAc(b1-3)Gal
# In short: as §1
# [30] = target: GlcNAc(b1-3)Gal(b1-3)GalNAc
# In short: as §1
# [31] = target: GlcNAc(b1-3)Gal(b1-4)Glc
# In short: as §1
# [32] = target: GlcNAc(b1-3)Gal(b1-4)GlcNAc
# In short: as §1
# [33] = target: GlcNAc(b1-3)Gal(b1-4)GlcNAc(b1-2)Man(a1-3)[GlcNAc(b1-3)Gal(b1-4)GlcNAc(b1-2)Man(a1-6)]Man(b1-4)GlcNAc(b1-4)GlcNAc
# In short: as §1
# [34] = target: GlcNAc(b1-3)Gal(b1-4)GlcNAc(b1-2)Man(a1-3)[GlcNAc(b1-3)Gal(b1-4)GlcNAc(b1-2)Man(a1-6)]Man(b1-4)GlcNAc(b1-4)[Fuc(a1-6)]GlcNAc
# In short: as §1
# [35] = target: GlcNAc(b1-3)Gal(b1-4)GlcNAc(b1-2)[GlcNAc(b1-3)Gal(b1-4)GlcNAc(b1-6)]Man(a1-6)[GlcNAc(b1-3)Gal(b1-4)GlcNAc(b1-2)Man(a1-3)]Man(b1-4)GlcNAc(b1-4)GlcNAc
# In short: as §1
# [36] = target: GlcNAc(b1-3)Gal(b1-4)GlcNAc(b1-3)Gal(b1-4)GlcNAc
# In short: as §1
# [37] = target: GlcNAc(b1-3)Gal(b1-4)GlcNAc(b1-3)Gal(b1-4)GlcNAc(b1-2)Man(a1-3)[GlcNAc(b1-3)Gal(b1-4)GlcNAc(b1-3)Gal(b1-4)GlcNAc(b1-2)Man(a1-6)]Man(b1-4)GlcNAc(b1-4)GlcNAc
# In short: as §1
# [38] = target: GlcNAc(b1-3)Gal(b1-4)GlcNAc(b1-3)Gal(b1-4)GlcNAc(b1-2)Man(a1-3)[GlcNAc(b1-3)Gal(b1-4)GlcNAc(b1-3)Gal(b1-4)GlcNAc(b1-2)Man(a1-6)]Man(b1-4)GlcNAc(b1-4)[Fuc(a1-6)]GlcNAc
# In short: as §1
# [39] = target: GlcNAc(b1-3)Gal(b1-4)GlcNAc(b1-3)Gal(b1-4)GlcNAc(b1-2)[GlcNAc(b1-3)Gal(b1-4)GlcNAc(b1-3)Gal(b1-4)GlcNAc(b1-6)]Man(a1-6)[GlcNAc(b1-3)Gal(b1-4)GlcNAc(b1-3)Gal(b1-4)GlcNAc(b1-2)Man(a1-3)]Man(b1-4)GlcNAc(b1-4)[Fuc(a1-6)]GlcNAc
# In short: as §1
# [40] = target: GlcNAc(b1-3)Gal(b1-4)GlcNAc(b1-3)Gal(b1-4)GlcNAc(b1-3)Gal(b1-4)GlcNAc(b1-2)Man(a1-3)[GlcNAc(b1-3)Gal(b1-4)GlcNAc(b1-3)Gal(b1-4)GlcNAc(b1-3)Gal(b1-4)GlcNAc(b1-2)Man(a1-6)]Man(b1-4)GlcNAc(b1-4)GlcNAc
# In short: as §1
# [41] = target: GlcNAc(b1-3)Gal(b1-4)GlcNAc(b1-3)Gal(b1-4)GlcNAc(b1-3)Gal(b1-4)GlcNAc(b1-2)Man(a1-3)[GlcNAc(b1-3)Gal(b1-4)GlcNAc(b1-3)Gal(b1-4)GlcNAc(b1-3)Gal(b1-4)GlcNAc(b1-2)Man(a1-6)]Man(b1-4)GlcNAc(b1-4)[Fuc(a1-6)]GlcNAc
# In short: as §1
# [42] = target: GlcNAc(b1-3)Gal(b1-4)GlcNAc(b1-3)Gal(b1-4)GlcNAc(b1-3)Gal(b1-4)GlcNAc(b1-2)[GlcNAc(b1-3)Gal(b1-4)GlcNAc(b1-3)Gal(b1-4)GlcNAc(b1-3)Gal(b1-4)GlcNAc(b1-6)]Man(a1-6)[GlcNAc(b1-3)Gal(b1-4)GlcNAc(b1-3)Gal(b1-4)GlcNAc(b1-3)Gal(b1-4)GlcNAc(b1-2)Man(a1-3)]Man(b1-4)GlcNAc(b1-4)[Fuc(a1-6)]GlcNAc
# In short: as §1
# [43] = target: GlcNAc(b1-3)Gal(b1-4)GlcNAc(b1-3)Gal(b1-4)GlcNAc(b1-3)Gal(b1-4)GlcNAc(b1-3)Gal(b1-4)GlcNAc(b1-2)Man(a1-3)[GlcNAc(b1-3)Gal(b1-4)GlcNAc(b1-3)Gal(b1-4)GlcNAc(b1-3)Gal(b1-4)GlcNAc(b1-3)Gal(b1-4)GlcNAc(b1-2)Man(a1-6)]Man(b1-4)GlcNAc(b1-4)GlcNAc
# In short: as §1
# [44] = target: GlcNAc(b1-3)Gal(b1-4)GlcNAc(b1-3)Gal(b1-4)GlcNAc(b1-3)Gal(b1-4)GlcNAc(b1-3)Gal(b1-4)GlcNAc(b1-2)Man(a1-3)[GlcNAc(b1-3)Gal(b1-4)GlcNAc(b1-3)Gal(b1-4)GlcNAc(b1-3)Gal(b1-4)GlcNAc(b1-3)Gal(b1-4)GlcNAc(b1-2)Man(a1-6)]Man(b1-4)GlcNAc(b1-4)[Fuc(a1-6)]GlcNAc
# In short: as §1
# [45] = target: GlcNAc(b1-3)Gal(b1-4)GlcNAc(b1-3)Gal(b1-4)GlcNAc(b1-3)Gal(b1-4)GlcNAc(b1-3)Gal(b1-4)GlcNAc(b1-2)[GlcNAc(b1-3)Gal(b1-4)GlcNAc(b1-3)Gal(b1-4)GlcNAc(b1-3)Gal(b1-4)GlcNAc(b1-3)Gal(b1-4)GlcNAc(b1-6)]Man(a1-6)[GlcNAc(b1-3)Gal(b1-4)GlcNAc(b1-3)Gal(b1-4)GlcNAc(b1-3)Gal(b1-4)GlcNAc(b1-3)Gal(b1-4)GlcNAc(b1-2)Man(a1-3)]Man(b1-4)GlcNAc(b1-4)[Fuc(a1-6)]GlcNAc
# In short: as §1
binder,measurement,setting,value
EULS2 M2 (Oryza sativa) (protein) MVYCRANPNYAMTARNGAVVLAPANPKDEYQHWIKDMRWSTSIKDEEGYPAFALVNKATGQAIKHSLGQSHPVRLVPYNPEVMDESVLWTESRDVGNGFRCIRMVNNIYLNFDAFHGDKYHGGVRDGTDIVLWKLCEGDSQRWKIQPYYILEQKLISEEDLNSAVDHHHHHH,glycan array binding signal (z-score),[1],1.05
same,glycan array binding signal (z-score),[2],-0.206
same,glycan array binding signal (z-score),[3],-0.03
same,glycan array binding signal (z-score),[4],0.412
same,glycan array binding signal (z-score),[5],-0.316
same,glycan array binding signal (z-score),[6],-0.843
same,glycan array binding signal (z-score),[7],-0.558
same,glycan array binding signal (z-score),[8],-0.293
same,glycan array binding signal (z-score),[9],-0.051
same,glycan array binding signal (z-score),[10],-0.203
same,glycan array binding signal (z-score),[11],-0.49
same,glycan array binding signal (z-score),[12],-0.264
same,glycan array binding signal (z-score),[13],-0.401
same,glycan array binding signal (z-score),[14],0.201
same,glycan array binding signal (z-score),[15],-0.429
same,glycan array binding signal (z-score),[16],-0.618
same,glycan array binding signal (z-score),[17],-0.018
same,glycan array binding signal (z-score),[18],-0.386
same,glycan array binding signal (z-score),[19],0.52
same,glycan array binding signal (z-score),[20],-1.14
same,glycan array binding signal (z-score),[21],-0.803
same,glycan array binding signal (z-score),[22],-0.269
same,glycan array binding signal (z-score),[23],-0.263
same,glycan array binding signal (z-score),[24],1.81
same,glycan array binding signal (z-score),[25],-0.123
same,glycan array binding signal (z-score),[26],0.113
same,glycan array binding signal (z-score),[27],-0.431
same,glycan array binding signal (z-score),[28],-0.78
same,glycan array binding signal (z-score),[29],-0.404
same,glycan array binding signal (z-score),[30],-0.337
same,glycan array binding signal (z-score),[31],-0.357
same,glycan array binding signal (z-score),[32],-0.346
same,glycan array binding signal (z-score),[33],-0.176
same,glycan array binding signal (z-score),[34],0.837
same,glycan array binding signal (z-score),[35],1.16
same,glycan array binding signal (z-score),[36],-0.053
same,glycan array binding signal (z-score),[37],0.163
same,glycan array binding signal (z-score),[38],-0.087
same,glycan array binding signal (z-score),[39],0.378
same,glycan array binding signal (z-score),[40],0.026
same,glycan array binding signal (z-score),[41],0.36
same,glycan array binding signal (z-score),[42],-0.203
same,glycan array binding signal (z-score),[43],-0.068
same,glycan array binding signal (z-score),[44],-0.087
same,glycan array binding signal (z-score),[45],-0.082
